From paper PMC4047078
No constants are given. Whether binding was seen depends on the method and setting. For some assays here: In cells and extracts the contact can be indirect. Some results given as binding are weak or reduced against the parent protein; the word gives no strength.

Experiments:
[1] = target: Endogenous Arabidopsis AtGRIP (Arabidopsis thaliana (endogenous in seedlings)) (UniProt Q8S2T0); experiment: cross-linking; supernatant of Arabidopsis seedling extract in 0.1 M PBS pH 7.0 with DTSSP (0.05 mM in the methods, 0.25 mM in the legend) 30 min at 25°C; non-reducing SDS-PAGE and immunoblot with anti-AtGRIP antibody
[2] = target: full-length AtGRIP (Arabidopsis thaliana) (UniProt Q8S2T0); experiment: two-hybrid; AH109 yeast, pGBKT7 and pGADT7 fusions; growth on SD/-Trp/-Leu/-His/-Ade, 7 days at 30°C; X-gal test of the MEL1 reporter
[3] = target: T1, AtGRIP_(aa1-604) (Arabidopsis thaliana) (UniProt Q8S2T0); experiment: as above
T1 sequence: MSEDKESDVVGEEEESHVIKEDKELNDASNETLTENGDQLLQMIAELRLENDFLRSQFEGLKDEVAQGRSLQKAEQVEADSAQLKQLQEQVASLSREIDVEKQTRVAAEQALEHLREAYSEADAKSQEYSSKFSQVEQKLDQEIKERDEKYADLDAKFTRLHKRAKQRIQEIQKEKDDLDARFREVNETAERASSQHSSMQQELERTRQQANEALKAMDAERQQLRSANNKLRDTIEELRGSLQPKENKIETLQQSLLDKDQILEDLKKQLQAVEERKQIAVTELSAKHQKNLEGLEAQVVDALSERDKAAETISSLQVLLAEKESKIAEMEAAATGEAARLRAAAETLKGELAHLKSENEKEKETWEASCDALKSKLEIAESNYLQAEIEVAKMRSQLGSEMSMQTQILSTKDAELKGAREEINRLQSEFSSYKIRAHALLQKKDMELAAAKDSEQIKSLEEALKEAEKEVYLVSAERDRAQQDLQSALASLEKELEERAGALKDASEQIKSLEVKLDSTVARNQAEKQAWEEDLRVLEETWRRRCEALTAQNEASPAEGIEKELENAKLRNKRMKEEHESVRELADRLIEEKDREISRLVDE

[4] = target: T2, AtGRIP_(aa605–788) (Arabidopsis thaliana) (UniProt Q8S2T0); experiment: as above
T2 sequence: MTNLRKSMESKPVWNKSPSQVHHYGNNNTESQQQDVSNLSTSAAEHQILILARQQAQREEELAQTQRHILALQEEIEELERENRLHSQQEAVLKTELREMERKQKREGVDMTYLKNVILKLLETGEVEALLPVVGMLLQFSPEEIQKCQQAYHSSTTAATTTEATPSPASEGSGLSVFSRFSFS

[5] = target: AtGRIP_(aa711–788) (Arabidopsis thaliana) (UniProt Q8S2T0); experiment: as above
[6] = target: AtGRIP_(aa711–753) (Arabidopsis thaliana) (UniProt Q8S2T0); experiment: as above
[7] = target: AtGRIP_(aa711–766) (Arabidopsis thaliana) (UniProt Q8S2T0); experiment: as above
[8] = target: AtGRIP_(aa711–776) (Arabidopsis thaliana) (UniProt Q8S2T0); experiment: as above
[9] = target: AtGRIP_(aa711–788)-L742A (Arabidopsis thaliana) (UniProt Q8S2T0); experiment: as above

B1: Endogenous Arabidopsis AtGRIP (protein, UniProt Q8S2T0 1-788)
chain: MSEDKESDVVGEEEESHVIKEDKELNDASNETLTENGDQLLQMIAELRLENDFLRSQFEGLKDEVAQGRSLQKAEQVEADSAQLKQLQEQVASLSREIDVEKQTRVAAEQALEHLREAYSEADAKSQEYSSKFSQVEQKLDQEIKERDEKYADLDAKFTRLHKRAKQRIQEIQKEKDDLDARFREVNETAERASSQHSSMQQELERTRQQANEALKAMDAERQQLRSANNKLRDTIEELRGSLQPKENKIETLQQSLLDKDQILEDLKKQLQAVEERKQIAVTELSAKHQKNLEGLEAQVVDALSERDKAAETISSLQVLLAEKESKIAEMEAAATGEAARLRAAAETLKGELAHLKSENEKEKETWEASCDALKSKLEIAESNYLQAEIEVAKMRSQLGSEMSMQTQILSTKDAELKGAREEINRLQSEFSSYKIRAHALLQKKDMELAAAKDSEQIKSLEEALKEAEKEVYLVSAERDRAQQDLQSALASLEKELEERAGALKDASEQIKSLEVKLDSTVARNQAEKQAWEEDLRVLEETWRRRCEALTAQNEASPAEGIEKELENAKLRNKRMKEEHESVRELADRLIEEKDREISRLVDEMTNLRKSMESKPVWNKSPSQVHHYGNNNTESQQQDVSNLSTSAAEHQILILARQQAQREEELAQTQRHILALQEEIEELERENRLHSQQEAVLKTELREMERKQKREGVDMTYLKNVILKLLETGEVEALLPVVGMLLQFSPEEIQKCQQAYHSSTTAATTTEATPSPASEGSGLSVFSRFSFS
B1 was tested, and the binding [1] was “binds”.

B2: full-length AtGRIP (protein, UniProt Q8S2T0 1-788)
chain: MSEDKESDVVGEEEESHVIKEDKELNDASNETLTENGDQLLQMIAELRLENDFLRSQFEGLKDEVAQGRSLQKAEQVEADSAQLKQLQEQVASLSREIDVEKQTRVAAEQALEHLREAYSEADAKSQEYSSKFSQVEQKLDQEIKERDEKYADLDAKFTRLHKRAKQRIQEIQKEKDDLDARFREVNETAERASSQHSSMQQELERTRQQANEALKAMDAERQQLRSANNKLRDTIEELRGSLQPKENKIETLQQSLLDKDQILEDLKKQLQAVEERKQIAVTELSAKHQKNLEGLEAQVVDALSERDKAAETISSLQVLLAEKESKIAEMEAAATGEAARLRAAAETLKGELAHLKSENEKEKETWEASCDALKSKLEIAESNYLQAEIEVAKMRSQLGSEMSMQTQILSTKDAELKGAREEINRLQSEFSSYKIRAHALLQKKDMELAAAKDSEQIKSLEEALKEAEKEVYLVSAERDRAQQDLQSALASLEKELEERAGALKDASEQIKSLEVKLDSTVARNQAEKQAWEEDLRVLEETWRRRCEALTAQNEASPAEGIEKELENAKLRNKRMKEEHESVRELADRLIEEKDREISRLVDEMTNLRKSMESKPVWNKSPSQVHHYGNNNTESQQQDVSNLSTSAAEHQILILARQQAQREEELAQTQRHILALQEEIEELERENRLHSQQEAVLKTELREMERKQKREGVDMTYLKNVILKLLETGEVEALLPVVGMLLQFSPEEIQKCQQAYHSSTTAATTTEATPSPASEGSGLSVFSRFSFS
In the case of B2, the binding [2] is reported as “binds”.

B3: AtGRIP_(aa1-604) (domain or fragment, UniProt Q8S2T0 1-604)
chain: MSEDKESDVVGEEEESHVIKEDKELNDASNETLTENGDQLLQMIAELRLENDFLRSQFEGLKDEVAQGRSLQKAEQVEADSAQLKQLQEQVASLSREIDVEKQTRVAAEQALEHLREAYSEADAKSQEYSSKFSQVEQKLDQEIKERDEKYADLDAKFTRLHKRAKQRIQEIQKEKDDLDARFREVNETAERASSQHSSMQQELERTRQQANEALKAMDAERQQLRSANNKLRDTIEELRGSLQPKENKIETLQQSLLDKDQILEDLKKQLQAVEERKQIAVTELSAKHQKNLEGLEAQVVDALSERDKAAETISSLQVLLAEKESKIAEMEAAATGEAARLRAAAETLKGELAHLKSENEKEKETWEASCDALKSKLEIAESNYLQAEIEVAKMRSQLGSEMSMQTQILSTKDAELKGAREEINRLQSEFSSYKIRAHALLQKKDMELAAAKDSEQIKSLEEALKEAEKEVYLVSAERDRAQQDLQSALASLEKELEERAGALKDASEQIKSLEVKLDSTVARNQAEKQAWEEDLRVLEETWRRRCEALTAQNEASPAEGIEKELENAKLRNKRMKEEHESVRELADRLIEEKDREISRLVDE
B3 was tested, and the binding [3] was “binds” and the binding [4] was “no binding”.

B4: AtGRIP_(aa605–788) (domain or fragment, UniProt Q8S2T0 605-788)
chain: MTNLRKSMESKPVWNKSPSQVHHYGNNNTESQQQDVSNLSTSAAEHQILILARQQAQREEELAQTQRHILALQEEIEELERENRLHSQQEAVLKTELREMERKQKREGVDMTYLKNVILKLLETGEVEALLPVVGMLLQFSPEEIQKCQQAYHSSTTAATTTEATPSPASEGSGLSVFSRFSFS
For B4, the binding [3] was “no binding” and the binding [4] was “binds”.

B5: AtGRIP_(aa711–788) (domain or fragment, UniProt Q8S2T0 711-788)
chain: EGVDMTYLKNVILKLLETGEVEALLPVVGMLLQFSPEEIQKCQQAYHSSTTAATTTEATPSPASEGSGLSVFSRFSFS
B5 was tested, and the binding [5] was “binds”.

EGVDMTYLKNVILKLLETGEVEALLPVVGMLLQFSPEEIQKCQ (domain or fragment, UniProt Q8S2T0 711-753) [AtGRIP_(aa711–753)] was tested, and the binding [6] was “no binding”.

B6: AtGRIP_(aa711–766) (domain or fragment, UniProt Q8S2T0 711-766)
chain: EGVDMTYLKNVILKLLETGEVEALLPVVGMLLQFSPEEIQKCQQAYHSSTTAATTT
In the case of B6, the binding [7] is reported as “no binding”.

B7: AtGRIP_(aa711–776) (domain or fragment, UniProt Q8S2T0 711-776)
chain: EGVDMTYLKNVILKLLETGEVEALLPVVGMLLQFSPEEIQKCQQAYHSSTTAATTTEATPSPASEG
In the case of B7, the binding [8] is reported as “no binding”.

B8: AtGRIP_(aa711–788)-L742A (domain or fragment, UniProt Q8S2T0 711-788)
chain: EGVDMTYLKNVILKLLETGEVEALLPVVGMLAQFSPEEIQKCQQAYHSSTTAATTTEATPSPASEGSGLSVFSRFSFS
In the case of B8, the binding [9] is reported as “no binding”.
